Reference: the supplement of paper PMC3334620
Whole data set: some 33,000 sequences, median “E-score (-0.5 to 0.5)” near -0.016, cut for the highest 2% near 0.32. Some of the results follow.

These sequences were tested against T1, Stp1 (UniProt B3LFK1) (assay: PBM E-score (8-mer binding enrichment) (E-score (-0.5 to 0.5)); higher = stronger / more preferred TF binding; most listed sequences are background and not binding sites). Conditions: protein concentration: 200 nM; construct: GST-full length.
T1 sequence: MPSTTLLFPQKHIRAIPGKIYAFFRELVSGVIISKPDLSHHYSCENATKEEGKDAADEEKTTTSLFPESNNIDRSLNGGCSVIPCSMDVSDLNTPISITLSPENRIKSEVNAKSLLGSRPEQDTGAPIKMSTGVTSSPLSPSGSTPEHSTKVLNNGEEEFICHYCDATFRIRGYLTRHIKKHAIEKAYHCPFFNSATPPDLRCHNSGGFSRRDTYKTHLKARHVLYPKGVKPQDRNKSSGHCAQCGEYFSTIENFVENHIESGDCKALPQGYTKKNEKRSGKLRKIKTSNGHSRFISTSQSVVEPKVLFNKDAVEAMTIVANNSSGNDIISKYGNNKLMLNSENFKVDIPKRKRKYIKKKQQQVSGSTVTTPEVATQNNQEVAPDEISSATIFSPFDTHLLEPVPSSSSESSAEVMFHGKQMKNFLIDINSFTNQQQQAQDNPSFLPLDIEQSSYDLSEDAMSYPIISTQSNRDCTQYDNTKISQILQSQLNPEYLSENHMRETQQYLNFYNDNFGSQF
How it was run: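 Yeast transcription factors carrying a GST tag, as full-length proteins or DNA-binding domains, were produced by PURExpress in vitro transcription/translation. About 100-200 nM protein was applied to universal all-10-mer Agilent arrays, double-stranded by primer extension on fresh or once-stripped slides. Bound protein was detected with fluorescent anti-GST, and scans were normalised with masliner. The Universal PBM Analysis Suite gave each ungapped eight-base word, pooled with its reverse complement, an E-score, a modified Wilcoxon-Mann-Whitney statistic.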

Sequence | PBM E-score
CACGACCA | -0.133
CTACCTGC | 0.0359
AGGCCGTC | -0.0198
GAGTACCC | -0.148
CGCCCAGC | 0.0443
AGCTGGGA | -0.236
CACAGCCA | 0.0107
GCGTAGGA | -0.069
CTGAACAC | 0.148
AGCCATCC | 0.0193
AGTTGCTC | -0.0343
ACACGCGT | 0.101
GCGTCAAA | 0.099
CGGTTACC | 0.0175
AACGGCCA | 0.214
CACTGGTC | -0.187
AAAACTTT | -0.0797
AAATGACC | -0.187
GCAACGCC | 0.307
ATATTAAG | 0.14
CCGATCTA | -0.137
ACAGTGGT | -0.15
GGCGGGGA | 0.103
ACAGACAG | 0.131
ACCAGTGG | -0.124

Sequence | PBM E-score
ACTGTCGA | -0.163
GACGTCGA | -0.0178
GGCCTAAA | -0.0904
ATCCTTTC | -0.104
AGTAGCGG | 0.00328
GAATGCCA | 0.134
CGAAACGC | -0.0209
AGGCCGGG | -0.163
AGATCTCC | -0.34
CGCAGAAG | -0.0151
ATACCGGA | -0.118
GGGTCGAA | -0.167
CAAGTGCG | 0.0134
AGATCCAA | 0.0566
CGAATACC | -0.123
AGAACTAG | -0.144
TCGCGCGA | -0.0424
TAACGTTA | -0.0405
ATTGATCC | 0.0155
CTGTGCTA | -0.0189
GAGCCACA | -0.0282
CGCCAAAG | -0.143
ATAGATTG | 0.0305
AAACTCAC | 0.0404
ACGACTGC | -0.211

Sequence | PBM E-score
ATGTGACA | 0.18
CGTAGGTA | 0.0611
CCCAATCA | -0.0533
CTATCGCA | 0.0466
GCCTTGTA | 0.354
ATCGATTG | 0.237
AACGCCAG | 0.0837
GCAAGGGC | -0.0671
CTTATGCC | 0.154
CACGCGCG | 0.269
CCGGCACC | 0.254
AACCCTGA | -0.0508
TACAAACA | 0.223
TTGCCAAA | 0.0139
CCCTCGCC | -0.188
CATGCCTA | -0.0468
CGAAATTA | 0.208
GAACATGA | 0.00429
CCGCTTAC | 0.0762
ATGTGCCG | 0.377
GTGGCAGA | 0.0454
ATAAGAGG | 0.0649
ACAAGAAG | 0.042
ACCTGTAG | 0.0455
CATCCCGG | -0.289

Sequence | PBM E-score
ATCCCGGC | -0.117
CTATCGGA | -0.108
AAGCACAC | -0.0973
CTAATCCC | -0.0766
CAGGCTGG | -0.214
CTGGAGTA | 0.0835
CTGTGCGA | -0.0295
AAACAGCA | 0.211
AACAAAGA | 0.15
GCAATATA | 0.187
CTAGACCC | -0.266
TGTTTCAA | 0.182
ATTTCCGA | 0.0422
AAGTCTGC | -0.166
AAAGCGCG | 0.0803
ACGCCTAA | 0.014
ACCCCCAA | -0.349
AGACTTCG | -0.232
CGCCCATC | -0.141
GCTACGGA | 0.058
CAACACGC | -0.0386
CGTGAGTC | -0.238
AGACCTTG | -0.0339
CGATCTAG | -0.178
ACTCCGAT | -0.3

Sequence | PBM E-score
ATGGGCTC | -0.145
ACTAATAA | 0.115
CGCGTACG | 0.2
AGTTCTGC | 0.108
AAACCTCC | -0.237
ACCGGCTG | -0.0577
ACGGAACA | 0.133
CAAGCTTC | -0.18
CCAATAAC | 0.0278
CATACCCC | -0.0963
ACCGCGAA | 0.104
GCGACGTA | -0.0871
GTTATCAA | -0.0184
CTTACTGC | 0.0393
CTTATGGA | -0.0787
ATCAGCGA | -0.0139
AACGTGAA | -0.0435
GCCCCTCA | 0.00228
GGTCATAC | -0.199
CGACACGC | -0.04
AATAGCTC | -0.122
ATCGATCG | 0.178
ATGATGGA | -0.0152
CCGGAAAG | -0.195
TGTAAACA | 0.0901

Sequence | PBM E-score
CATCGCTA | 0.0812
ATAACGCA | 0.00911
TAACCACA | -0.022
GTAGGTAA | -0.101
AAACTAAA | 0.103
ACAGCTAC | -0.29
GAAGAAAC | 0.087
CTAATGTA | 0.135
GGCTAACC | -0.157
GCTCGTCA | -0.0652
ACATGTAC | -0.0624
CGCATTTC | 0.0727
CTTCTGTC | 0.0328
CTCTGACC | -0.232
ACGGTCAT | 0.0868
CGGGAAAG | -0.127
GGGAACTA | -0.0848
GGACGTAA | -0.0715
CACGGAGC | 0.229
CCAAATCA | 0.115
ACGGATGC | 0.301
TGGATCAA | 0.11
ACCCCCGA | -0.185
GCATACCA | -0.165
ACCCATGA | -0.325

Sequence | PBM E-score
CAGTCGAC | 0.0565
ATAGACCC | 0.0118
AGTCTGTA | -0.18
GAGCCCGC | 0.0162
ATCGCATC | -0.067
AGAGTGGC | -0.0945
GGCTCCAA | 0.266
GATGAAGA | -0.0141
CTTACTCA | -0.103
AGTAGAGC | -0.0318
AGCTCAAT | 0.0498
CCAGCAGG | -0.154
GTGCGGTA | 0.28
ACAGGAGC | -0.114
AACCTCTA | -0.104
CTGTTTTC | 0.0327
ATAATGAC | -0.189
TGTCCGAA | 0.115
AGGTTGAG | -0.144
AACTTCGC | 0.0233
CTGCGCCA | 0.106
GTTTAAAC | 0.0889
